± gives the standard error. Variants at the background level are over-represented here.
B1: glmS ribozyme (parent)
chain: AUAAAAGCGCCAGAACUACAGAAAUGUAGUUGACGAGGAGGAGGUUUAUCGAAUUUUCGGCGGAUGCCUCCAAA

Legend:
Conditions in all cases: with glucosamine-6-phosphate
glucosamine-6-phosphate [1] = variants of: B1; test: self-cleavage kobs at 640 uM GlcN6P; higher = faster cleavage; RNA array
Outline: (§1)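 A hybridised Cy3 probe tracked barcoded ribozyme variants, transcribed in situ by E. coli RNA polymerase on sequenced MiSeq chips, at 37 °C. The variants received 40 μM to 10 mM glucosamine-6-phosphate in HEPES/KCl/Mg(OAc)2 buffer. kobs came from decay fits and kcat and KM from weighted Michaelis–Menten fits.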

glucosamine-6-phosphate [2] = variants of: B1; test: self-cleavage kobs at 2500 uM GlcN6P; higher = faster cleavage; RNA array
Outline: as §1

glucosamine-6-phosphate [3] = variants of: B1; test: self-cleavage kobs at 10000 uM GlcN6P; higher = faster cleavage; RNA array
Outline: as §1

glucosamine-6-phosphate [4] = variants of: B1; test: self-cleavage kobs at 160 uM GlcN6P; higher = faster cleavage; RNA array
Outline: as §1

Row | Variant | self-cleavage kobs at 640 uM GlcN6P (glucosamine-6-phosphate [1]) [s⁻¹] | self-cleavage kobs at 2500 uM GlcN6P (glucosamine-6-phosphate [2]) [s⁻¹] | self-cleavage kobs at 10000 uM GlcN6P (glucosamine-6-phosphate [3]) [s⁻¹] | self-cleavage kobs at 160 uM GlcN6P (glucosamine-6-phosphate [4]) [s⁻¹]
1 | G35U G40U G63U C71G | < 1e-05 |  |  | 
2 | A33G G40U C58A C67A | < 1e-05 | < 1e-05 |  | 
3 | U31A A33U G40A | < 1e-05 |  |  | 
4 | G32U A33C G38C C61U | < 1e-05 | < 1e-05 |  | 
5 | C34A U47G C50U | < 1e-05 |  |  | 
6 | G35U G41A U55A G66A C68A | < 1e-05 | < 1e-05 |  | 
7 | G38C G43C G44A G63C A64U C70U | < 1e-05 | < 1e-05 |  | 
8 | A39G A42C C58A A64C | < 1e-05 | < 1e-05 |  | 
9 | A39C U45C | 9.68e-05 ± 1.7e-05 | 0.000214 ± 3.8e-05 | 0.000408 ± 4.5e-05 | 
10 | G35A G51A C67A | < 1e-05 | < 1e-05 |  | 
11 | A33C G51U C67A | < 1e-05 |  |  | 
12 | G37A A39G U55A G60A | < 1e-05 | < 1e-05 |  | 
13 | G32U C67G | 4.87e-05 ± 1.6e-05 | 6.69e-05 ± 1.2e-05 | 0.000107 ± 1.2e-05 | 
14 | A36U G37A U46G | < 1e-05 | < 1e-05 | < 1e-05 | 
15 | A33G G51A C61G | < 1e-05 |  |  | < 1e-05
16 | A36U U56A | < 1e-05 |  | < 1e-05 | 
17 | G32A A39C | 6.63e-05 ± 1.2e-05 | 0.000114 ± 2.1e-05 | 0.000259 ± 3.2e-05 | 
18 | C34U G43U G59A G62C C67A | < 1e-05 | < 1e-05 |  | 
19 | G32A U56A G59C G66U | < 1e-05 |  |  | 
20 | G38A G43A A52G | < 1e-05 | < 1e-05 |  | 
21 | G38C G60A | < 1e-05 |  | < 1e-05 | < 1e-05
22 | G37U U49A U54A | < 1e-05 |  |  | 
23 | G35U G38U C67A | < 1e-05 |  |  | 

Row | Variant | self-cleavage kobs at 640 uM GlcN6P (glucosamine-6-phosphate [1]) [s⁻¹] | self-cleavage kobs at 2500 uM GlcN6P (glucosamine-6-phosphate [2]) [s⁻¹] | self-cleavage kobs at 10000 uM GlcN6P (glucosamine-6-phosphate [3]) [s⁻¹] | self-cleavage kobs at 160 uM GlcN6P (glucosamine-6-phosphate [4]) [s⁻¹]
24 | C34U G41U | < 1e-05 | < 1e-05 | < 1e-05 | < 1e-05
25 | C34A C61G C67U | < 1e-05 | < 1e-05 |  | < 1e-05
26 | G35U A52G G62A G63U | < 1e-05 |  |  | 
27 | G35A A52C G63U | < 1e-05 |  |  | 
28 | A39C G62A A64G | < 1e-05 | < 1e-05 | < 1e-05 | < 1e-05
29 | U31C A36U A64C C67U | < 1e-05 |  |  | 
30 | U31G C34G | < 1e-05 |  | < 1e-05 | < 1e-05
31 | G37C A52U C71G | < 1e-05 |  |  | < 1e-05
32 | G37C U45G G63U | < 1e-05 | < 1e-05 |  | 
33 | U31C G32U A42C U46G C71G | < 1e-05 |  |  | 
34 | G41U G43A U49G | < 1e-05 | < 1e-05 |  | < 1e-05
35 | G41C A48U A64C U65A C71G | < 1e-05 |  |  | 
36 | A33U U45G C71G | < 1e-05 | < 1e-05 |  | 
37 | G37A A39U | 0.00028 ± 4e-05 | 0.000838 ± 9.2e-05 | 0.00116 ± 0.00015 | 6.13e-05 ± 1.5e-05
38 | G37C A39G U45A U49A | < 1e-05 | < 1e-05 |  | 
39 | A33U U46C A48U G60U | < 1e-05 | < 1e-05 |  | < 1e-05
40 | A36U A39C U56C | < 1e-05 | < 1e-05 |  | 
41 | G41A G51A C68G | < 1e-05 |  |  | 
42 | G38U A39C C58G | < 1e-05 |  |  | 
43 | G41C A53U A64U | < 1e-05 | < 1e-05 |  | < 1e-05
44 | G38U U46C G62U G63A | < 1e-05 | < 1e-05 |  | 
45 | A33G U55A | < 1e-05 |  | < 1e-05 | 
46 | A39C U57C C71U | < 1e-05 |  |  | 

Row | Variant | self-cleavage kobs at 640 uM GlcN6P (glucosamine-6-phosphate [1]) [s⁻¹] | self-cleavage kobs at 2500 uM GlcN6P (glucosamine-6-phosphate [2]) [s⁻¹] | self-cleavage kobs at 10000 uM GlcN6P (glucosamine-6-phosphate [3]) [s⁻¹] | self-cleavage kobs at 160 uM GlcN6P (glucosamine-6-phosphate [4]) [s⁻¹]
47 | G35U U46C A48U | < 1e-05 | < 1e-05 |  | 
48 | G37A G66C | 0.000117 ± 1.8e-05 | 0.000357 ± 5.8e-05 | 0.000439 ± 8.7e-05 | 4.54e-05 ± 1.4e-05
49 | G37A C50U U55C G59C | < 1e-05 |  |  | 
50 | G38U U55C | < 1e-05 |  |  | 
51 | A39G G62C C71G | < 1e-05 |  |  | 
52 | G32A U55G G59U | < 1e-05 |  |  | 
53 | G41U A52U U57G G59U | < 1e-05 | < 1e-05 |  | 
54 | A39U C61G U69G | < 1e-05 | < 1e-05 | < 1e-05 | 
55 | U31C C58A G60A C67U | < 1e-05 |  |  | 
56 | A39U G40A A64G | 0.000775 ± 0.00021 | 0.00738 ± 0.0025 |  | 0.000419 ± 0.00012
57 | C34G A39U U49G | < 1e-05 |  |  | 
58 | G37U G38U G51A C58A | < 1e-05 |  |  | 
59 | U31C U49C | < 1e-05 |  |  | < 1e-05
60 | G38U A48G C71U | < 1e-05 |  |  | 
61 | C34G G43A G44A U65A | < 1e-05 | < 1e-05 |  | 
62 | G35C G43A U69C | < 1e-05 |  |  | 
63 | U31G A42C U47A A48U C61U C71U | < 1e-05 | < 1e-05 |  | < 1e-05
64 | A39U G40A U45C A64C | < 1e-05 |  |  | 
65 | G38U A42U U54C A64C | < 1e-05 |  |  | 
66 | A33G A42C | < 1e-05 | < 1e-05 | < 1e-05 | < 1e-05
67 | U31A G35C A48G | < 1e-05 |  |  | < 1e-05
68 | G38U G40A A42C U57A | < 1e-05 | < 1e-05 | < 1e-05 | 
69 | G35U G40U U45A C67G U69A | < 1e-05 | < 1e-05 |  | 

Row | Variant | self-cleavage kobs at 640 uM GlcN6P (glucosamine-6-phosphate [1]) [s⁻¹] | self-cleavage kobs at 2500 uM GlcN6P (glucosamine-6-phosphate [2]) [s⁻¹] | self-cleavage kobs at 10000 uM GlcN6P (glucosamine-6-phosphate [3]) [s⁻¹] | self-cleavage kobs at 160 uM GlcN6P (glucosamine-6-phosphate [4]) [s⁻¹]
70 | A39C G63C C67G | < 1e-05 | < 1e-05 |  | 
71 | G35A A39G G63A | < 1e-05 | < 1e-05 |  | 
72 | U31C G37A | 0.000113 ± 2.3e-05 | 0.000119 ± 1.8e-05 | 0.000359 ± 3.4e-05 | 
73 | A36C U49G G51C U65C | < 1e-05 |  |  | 
74 | G40A U47G C50A | < 1e-05 |  |  | 
75 | G35U A53U G60U | < 1e-05 |  |  | < 1e-05
76 | G37A U47C | 0.000181 ± 3.8e-05 | 0.000398 ± 7.7e-05 | 0.00103 ± 0.00045 | 8.31e-05 ± 2.2e-05
77 | G37A C58U | < 1e-05 | < 1e-05 |  | 
78 | G32U U45C C61A | < 1e-05 | < 1e-05 |  | 
79 | C34U U46A | < 1e-05 | < 1e-05 | < 1e-05 | < 1e-05
80 | U31G C34A A64G | < 1e-05 | < 1e-05 |  | 
81 | G38U G41U A52U G66C | < 1e-05 |  |  | 
82 | C34A G43U A52U | < 1e-05 |  | < 1e-05 | < 1e-05
83 | A36G U46A | < 1e-05 |  | < 1e-05 | 
84 | U31G G37A G63U | < 1e-05 | < 1e-05 |  | 
85 | U31G A33C U45A U56C | < 1e-05 | < 1e-05 | < 1e-05 | < 1e-05
86 | C34G U46A C67A | < 1e-05 | < 1e-05 |  | < 1e-05
87 | G41A C61G | < 1e-05 | < 1e-05 | < 1e-05 | < 1e-05
88 | U31G U57C G59C G62U | < 1e-05 | < 1e-05 |  | 
89 | A36C U57G U65G | < 1e-05 |  | < 1e-05 | 
90 | G41U G51A A53G C61U | < 1e-05 | < 1e-05 |  | 
91 | G38U C61U | < 1e-05 | < 1e-05 |  | 
92 | G35U U55A | < 1e-05 | < 1e-05 | < 1e-05 | 

Row | Variant | self-cleavage kobs at 640 uM GlcN6P (glucosamine-6-phosphate [1]) [s⁻¹] | self-cleavage kobs at 2500 uM GlcN6P (glucosamine-6-phosphate [2]) [s⁻¹] | self-cleavage kobs at 10000 uM GlcN6P (glucosamine-6-phosphate [3]) [s⁻¹] | self-cleavage kobs at 160 uM GlcN6P (glucosamine-6-phosphate [4]) [s⁻¹]
93 | G35U A42G U55A | < 1e-05 |  |  | 
94 | A39C G62C | < 1e-05 | < 1e-05 | < 1e-05 | < 1e-05
95 | G37U A42C | < 1e-05 | < 1e-05 | < 1e-05 | < 1e-05
96 | G40A A42U A48U | < 1e-05 |  |  | 
97 | A33G U49C G62A | < 1e-05 | < 1e-05 |  | 
98 | A39C U45A C68G | < 1e-05 |  |  | 
99 | G35A U47A C61U | < 1e-05 | < 1e-05 |  | 
100 | G41U U69G | < 1e-05 | < 1e-05 |  | < 1e-05
101 | C34U U45C U65A | < 1e-05 |  |  | < 1e-05
102 | U31G G44A C68U | < 1e-05 |  |  | 
103 | U31G G41U U47G | 7.13e-05 ± 2e-05 |  |  | 
104 | G38U G60U | < 1e-05 |  |  | < 1e-05
105 | G32C G51U G66A | < 1e-05 |  |  | 
106 | G38C A48G G66A | < 1e-05 | < 1e-05 |  | 
107 | U31C A33U A36U G38C C58U U65G G66C C71U | < 1e-05 | < 1e-05 |  | 
108 | A39C G43U U47A C70U | < 1e-05 | < 1e-05 |  | 
109 | G35C U45G G59A | < 1e-05 |  |  | 
110 | A39C A52C C71A | < 1e-05 | < 1e-05 |  | 
111 | G35A A39C G63U | < 1e-05 | < 1e-05 |  | 
112 | G40C C50U | < 1e-05 |  | < 1e-05 | < 1e-05
113 | G38U G43A C71U | < 1e-05 | < 1e-05 |  | 

Reference: the supplement of paper PMC7125110
